Source: patent US20050054043A1 (UNIVERSITY OF VERMONT, published 2005)

B1: Scipac diferric human transferrin (ligand)
chain: not shown
modifications: diferric; radioiodinated in Table 2 (A), unlabeled in (B)
notes: Commercial human transferrin
B2: Sigma diferric human transferrin (ligand)
chain: not shown
modifications: diferric; radioiodinated in Table 2 (A), unlabeled in (B)
notes: Commercial human transferrin
B3: Boehringer Mannheim diferric transferrin (human) (ligand)
chain: not shown
modifications: diferric; radioiodinated as the direct-binding sample in (A) and as the tracer in (B); unlabeled as the competitor
notes: Commercial human transferrin; also called Boehringer Mannheim Fe2hTf; Boehringer Mannheim hTf
B4: recombinant full-length human serum transferrin (recombinant glycosylated), diferric (ligand)
chain: not shown
modifications: glycosylated (N-linked oligosaccharide sites Asn-413 and Asn-611); diferric (iron-saturated); radioiodinated in Table 2 (A), unlabeled in (B)
notes: also called full length recombinant hTF; recombinant Tf

molecular target: T1, transferrin receptor on HeLa S3 cells (human); experiment: competition of unlabeled transferrin against radioiodinated Boehringer Mannheim hTf on HeLa S3 cells, LIGAND fit (apparent Kd')
T1 construct: whole, on cells; also called human receptors; cell-surface transferrin receptors

Kd [µM]	Binder
0.03	B1
0.0196	B2
0.0297	B3
0.0226	B4

molecular target: T1, transferrin receptor on HeLa S3 cells; experiment: direct equilibrium binding of radioiodinated diferric transferrin to HeLa S3 cells, LIGAND fit (apparent Kd')

Kd [µM]	Binder
0.0225	B1
0.0199	B2
0.0178	B3
0.0313	B4
